{"source": "PubChem BioAssay (NCI)", "test_system": "NCI-H322M lung", "test": "growth of human tumour cells (NCI), 48 h", "note": "Values joined by “and” are separate entries in the source; they are usually repeats but may differ in a detail not shown here. Identical values can stand only once.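 Five compound concentrations were applied to cells in 96-well plates for 48 hours; endpoints were derived by simple linear interpolation of the resulting dose-response curve. GI50 is the concentration that inhibits growth by half. Definition used: TGI = concentration required for complete inhibition of growth.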", "data": [{"smiles": "CN1CCN(Cc2ccc(NC(=O)c3cncc(C#Cc4cnc5ccc(NC6CCOCC6)nn45)c3)cc2C(F)(F)F)CC1", "values": [{"measurement": "GI50", "value": "139 nM and 53.9 nM"}, {"measurement": "TGI", "value": "604 nM and 299 nM"}]}]}
